Source: PubChem BioAssay AID624202 (National Center for Advancing Translational Sciences (NCATS), 2012)
Out of some 380,000 compounds screened, about 4,000 (1.1%) were called active. The inconclusive results got no clear call from the source; some entries with a clear call stand among them for comparison. The call rests on the fitted dose curve; in most records, active means well fitted activation curve with a large enough effect; inconclusive means small, poorly fitted or top-dose-only effect; inactive means no such curve, though single readings can be large or run the other way. Where the call is inconclusive, the potency comes from a doubtful curve fit.

Assay: qHTS Assay to Identify Small Molecule Activators of BRCA1 Expression; further: nearly all actives have a fitted effect of over 80% in size
Details: MCF7-BRCA1-FFLuc reporter, luminescence, 48 h; activation: at 46.1 µM (top of the series), scaled: vehicle 0%, 10 µM genistein 100% unless noted
Outline: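 Cells: MCF7-BRCA1-FFLuc, 2000/well. Exposure: 48 h, 37 °C, 5% CO2. Read: luminescence, 15 min post-substrate. Controls: genistein 10 microM (maximal activation), DMSO (neutral).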
Potency means the concentration at half of the fitted maximal effect; tags describe the fitted curve by direction and shape.

SMILES	Potency	activation
O=C(NC(=S)NCC1CCCO1)c1ccc(Br)o1 (stereo not given)	inconclusive: 10 µM [activator, partial curve, poor fit]	–
N/C(=N\OC(=O)c1ccccc1)c1cccnc1	active: 11.2 µM	–
O=C(N/N=C/c1ccc(Br)o1)c1ccc2c(c1)OCCO2	inconclusive: 7.94 µM [activator, partial curve, poor fit]	–
CC(=O)c1cnc(Nc2cccc(C)c2)s1	inconclusive: 8.91 µM [activator, partial curve, poor fit]	–
O=C(COc1ccccc1)NC1=NCCS1	inconclusive: 35.5 µM [activator, single point]	–
Cn1cccc1CNC(=O)Nc1ccc(Cl)cc1	inconclusive: 7.08 µM [activator, partial curve, poor fit]	–
O=C1c2cccc3c(N4CCCCC4)ccc(c23)C(=O)N1CCO	inconclusive: 17.8 µM [activator, single point]	–
O=C(CNC(=O)c1ccc(F)cc1)c1ccccc1	inconclusive: 2 µM [activator, partial curve, poor fit]	–
S=C(c1ccc(-c2cccc(Cl)c2)o1)N1CCCCC1	inconclusive: 3.55 µM [activator, full curve, poor fit]	–
NNC(=O)c1cccc(COc2ccc(Br)cc2)c1	–	inconclusive: -61.6% [activator]
CCn1cnc2sc(-c3ccccc3)cc2c1=O	inconclusive: 1.78 µM [activator, full curve, poor fit]	–
CCSc1nn2c(=O)c3ccccc3nc2s1	active: 2.51 µM	–
COC(=O)c1ccc2c(c1)C(C)(C)C(/C=C/c1ccc(OC)c(OC)c1OC)=[N+]2C	–	inactive: -88.6%
O=C(c1cc2sccc2n1Cc1ccccc1)N1CCCc2ccccc21	–	inactive: -39.8%
Cc1cccc(C(=O)N=c2sccn2C)c1[N+](=O)[O-]	active: 5.01 µM	–
Cc1ccc(-c2nc3ccccc3[nH]2)s1	inconclusive: 2.82 µM [activator, full curve, poor fit]	–
O=C(NCc1csc(-c2ccccc2)n1)c1ccco1	active: 10 µM	–
Cc1ccc(Nc2ncnc(-n3cccc3)n2)cc1Cl	active: 6.31 µM	–
Cc1ccc(NC(=O)CSc2ncccn2)c([N+](=O)[O-])c1	active: 11.2 µM	–
CC(Cc1cccs1)NC(=S)Nc1ccc(F)cc1 (stereo not given)	–	inactive: 77.1%
COc1ccc2c(CNCCc3ccc(SC)cc3)c(C(=O)O)n(Cc3ccc(F)cc3)c2c1	–	inactive: -60.9%
Cc1nc(-c2ccc(S(=O)(=O)Nc3cc(Cl)ccc3C)cc2)co1	–	inactive: -26.2%
Cc1nn(C(C)(C)C)c(C)c1/C=N/OC(=O)Nc1ccc(Cl)c(Cl)c1	–	inactive: -94.2%
CC(C)=CC(=O)Nc1ccc(OCc2ccccc2)cc1	active: 2.82 µM	–
COc1ccc(CCc2ccc3ccccc3n2)cc1	inconclusive: 2.82 µM [activator, partial curve, poor fit]	–

SMILES	Potency	activation
O=C(NC1CCCCC1)c1ccc2c(c1)OCCO2	inconclusive: 1.78 µM [activator, full curve, poor fit]	–
CCCCOc1ccc(/C(N)=N/O)cc1	active: 11.2 µM	–
CC1CCC/C(=C\Nc2ccc(O)cc2)C1=O (stereo not given)	inconclusive: 25.1 µM [activator, partial curve, poor fit]	–
COc1ccc(/C=N/NC(=O)c2ccn[nH]2)cc1CSc1ccccn1	inconclusive: 2 µM [activator, full curve, poor fit]	–
COCCNc1c(-c2ccc(OC)c(OC)c2)nc2ccc(Cl)cn12	–	inactive: 5.9%
COc1ccc(-c2noc(-c3cccnc3)n2)cc1OC	active: 7.94 µM	–
COc1ccccc1-n1c(=S)sc2c(=O)n(Cc3ccco3)c(SC)nc21	–	inactive: -64.9%
Cc1cccc2c1ncc1c(=O)n(-c3ccccc3)[nH]c12	inconclusive: 2.24 µM [activator, full curve, poor fit]	–
COC(=O)c1ccc(NN=Nc2ccc(C)cc2)cc1	–	inconclusive: 97.8% [activator]
Cc1cccc(-c2nnc(-c3cccc(NC(=O)Cc4cccs4)c3)o2)c1	active: 12.6 µM	–
Cc1cccc(/C=C/c2nc3ccccc3c(=O)[nH]2)c1	inconclusive: 0.562 µM [activator, full curve, poor fit]	–
Cc1cc(C)cc(OCCSc2nc3ccc(NC(=O)c4cccs4)cc3s2)c1	–	inactive: -0.179%
CC1(C)CC(=O)C(C=Nc2cc(C(=O)c3ccccc3)ccc2N)=C(O)C1	inconclusive: 22.4 µM [activator, single point]	–
COc1ccc(-c2cc(C(=O)Nc3cc(C)ccc3O)no2)cc1	inconclusive: 2.82 µM [activator, full curve, poor fit]	–
O=C(Nc1nnc(SCc2ccc(Cl)cc2)s1)c1cnccn1	–	inactive: -8.41%
CC(=O)c1ccc(OCC(O)Cn2nnc3ccccc32)cc1 (stereo not given)	inconclusive: 22.4 µM [activator, single point]	–
O=C(COc1ccc(Cc2ccccc2)cc1)c1ccc(F)cc1	inconclusive: 35.5 µM [activator, single point]	–
O=c1c2ccccc2oc2ccc(Oc3ccccc3)cc12	active: 3.55 µM	–
COC(=O)c1ccc(/C=C(\C#N)c2ccccn2)cc1	inconclusive: 14.1 µM [activator, partial curve, poor fit]	–
Cc1nn(CCc2nn[nH]n2)c2nc(-c3ccc(Br)cc3)cc(C(F)(F)F)c12	–	inactive: -83.2%
COc1cccc(-c2cnc(C(O)c3cccc(F)c3)[nH]2)c1 (stereo not given)	inconclusive: 14.1 µM [activator, partial curve, poor fit]	–
O=C(COc1ccccc1Cl)Nc1ccccc1C(=O)N1CCCCC1	inconclusive: 12.6 µM [activator, partial curve, poor fit]	–
Clc1ccc(-c2cnc3ccccc3n2)cc1	inconclusive: 12.6 µM [activator, single point]	–
O=C(Nc1cnc2ccccc2c1)N1CCOCC1	inconclusive: 10 µM [activator, partial curve, poor fit]	–
CCCCc1nc2cc(C(=O)N3CCCC3)ccc2o1	active: 8.91 µM	–
